Test results reported in paper PMC9911399, “Two distinct binding modes provide the RNA-binding protein RbFox with extraordinary sequence specificity”.
Numbering of substitutions follows the chain as printed; changes in the protein carry UniProt numbers. The list shows a part of the results.

T1: RBFOX1 RRM (Homo sapiens, UniProt Q9NWB1 109-208)
T1 sequence: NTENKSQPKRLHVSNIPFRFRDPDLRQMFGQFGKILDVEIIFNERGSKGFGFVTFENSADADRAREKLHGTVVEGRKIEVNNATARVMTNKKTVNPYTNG

B1: GUAACCG (DNA:RNA)
RNA: GGGAGACCGGAAUUCAGAUUGUCCGUAACCGUUAAAUCCCGUCGUAGCCACCA
DNA 1: CAATCTGAATTCCGGTCTCCC
DNA 2: TGGTGGCTACGACGGGATT
B2: AACCAAG (DNA:RNA)
RNA: B1 RNA with G25A, U26A, A27C, A28C, C29A, C30A
DNA 1: CAATCTGAATTCCGGTCTCCC
DNA 2: TGGTGGCTACGACGGGATT
B3: ACUGUUA (DNA:RNA)
RNA: GGGAGACCGGAAUUCAGAUUGUCCACUGUUAUUAAAUCCCGUCGUAGCCACCA
DNA 1: CAATCTGAATTCCGGTCTCCC
DNA 2: TGGTGGCTACGACGGGATT
B4: UUUCGAC (DNA:RNA)
RNA: B3 RNA with A25U, C26U, G28C, U29G, U30A, A31C
DNA 1: CAATCTGAATTCCGGTCTCCC
DNA 2: TGGTGGCTACGACGGGATT
B5: CUGUAAG (DNA:RNA)
RNA: B1 RNA with G25C, A27G, A28U, C29A, C30A
DNA 1: CAATCTGAATTCCGGTCTCCC
DNA 2: TGGTGGCTACGACGGGATT
B6: GGUCAUG (DNA:RNA)
RNA: B3 RNA with A25G, C26G, G28C, U29A, A31G
DNA 1: CAATCTGAATTCCGGTCTCCC
DNA 2: TGGTGGCTACGACGGGATT
B7: GGCUGCG (DNA:RNA)
RNA: B1 RNA with U26G, A27C, A28U, C29G
DNA 1: CAATCTGAATTCCGGTCTCCC
DNA 2: TGGTGGCTACGACGGGATT
B8: AACUAUA (DNA:RNA)
RNA: B3 RNA with C26A, U27C, G28U, U29A
DNA 1: CAATCTGAATTCCGGTCTCCC
DNA 2: TGGTGGCTACGACGGGATT
B9: UGGCGAA (DNA:RNA)
RNA: B3 RNA with A25U, C26G, U27G, G28C, U29G, U30A
DNA 1: CAATCTGAATTCCGGTCTCCC
DNA 2: TGGTGGCTACGACGGGATT
B10: CAGCCAG (DNA:RNA)
RNA: B1 RNA with G25C, U26A, A27G, A28C, C30A
DNA 1: CAATCTGAATTCCGGTCTCCC
DNA 2: TGGTGGCTACGACGGGATT
B11: AGGCGGG (DNA:RNA)
RNA: B3 RNA with C26G, U27G, G28C, U29G, U30G, A31G
DNA 1: CAATCTGAATTCCGGTCTCCC
DNA 2: TGGTGGCTACGACGGGATT
B12: AUCGAGU (DNA:RNA)
RNA: B3 RNA with C26U, U27C, U29A, U30G, A31U
DNA 1: CAATCTGAATTCCGGTCTCCC
DNA 2: TGGTGGCTACGACGGGATT
B13: UGACCGG (DNA:RNA)
RNA: B1 RNA with G25U, U26G, A28C, C30G
DNA 1: CAATCTGAATTCCGGTCTCCC
DNA 2: TGGTGGCTACGACGGGATT
B14: CUAAACG (DNA:RNA)
RNA: B1 RNA with G25C, C29A
DNA 1: CAATCTGAATTCCGGTCTCCC
DNA 2: TGGTGGCTACGACGGGATT
B15: GGCAAUC (DNA:RNA)
RNA: B1 RNA with U26G, A27C, C29A, C30U, G31C
DNA 1: CAATCTGAATTCCGGTCTCCC
DNA 2: TGGTGGCTACGACGGGATT
B16: GCUGGUG (DNA:RNA)
RNA: B3 RNA with A25G, U29G, A31G
DNA 1: CAATCTGAATTCCGGTCTCCC
DNA 2: TGGTGGCTACGACGGGATT
B17: CACGGAU (DNA:RNA)
RNA: B3 RNA with A25C, C26A, U27C, U29G, U30A, A31U
DNA 1: CAATCTGAATTCCGGTCTCCC
DNA 2: TGGTGGCTACGACGGGATT
B18: ACCUAAU (DNA:RNA)
RNA: B3 RNA with U27C, G28U, U29A, U30A, A31U
DNA 1: CAATCTGAATTCCGGTCTCCC
DNA 2: TGGTGGCTACGACGGGATT
B19: UGAUAAG (DNA:RNA)
RNA: B1 RNA with G25U, U26G, A28U, C29A, C30A
DNA 1: CAATCTGAATTCCGGTCTCCC
DNA 2: TGGTGGCTACGACGGGATT
B20: AAAAAGA (DNA:RNA)
RNA: B3 RNA with C26A, U27A, G28A, U29A, U30G
DNA 1: CAATCTGAATTCCGGTCTCCC
DNA 2: TGGTGGCTACGACGGGATT
B21: ACCGGGC (DNA:RNA)
RNA: B3 RNA with U27C, U29G, U30G, A31C
DNA 1: CAATCTGAATTCCGGTCTCCC
DNA 2: TGGTGGCTACGACGGGATT
B22: GGGGUCU (DNA:RNA)
RNA: B3 RNA with A25G, C26G, U27G, U30C, A31U
DNA 1: CAATCTGAATTCCGGTCTCCC
DNA 2: TGGTGGCTACGACGGGATT
B23: CAACAGA (DNA:RNA)
RNA: B3 RNA with A25C, C26A, U27A, G28C, U29A, U30G
DNA 1: CAATCTGAATTCCGGTCTCCC
DNA 2: TGGTGGCTACGACGGGATT
B24: UUCGGUU (DNA:RNA)
RNA: B3 RNA with A25U, C26U, U27C, U29G, A31U
DNA 1: CAATCTGAATTCCGGTCTCCC
DNA 2: TGGTGGCTACGACGGGATT
B25: AUGCGCG (DNA:RNA)
RNA: B1 RNA with G25A, A27G, A28C, C29G
DNA 1: CAATCTGAATTCCGGTCTCCC
DNA 2: TGGTGGCTACGACGGGATT
B26: GCGUCAA (DNA:RNA)
RNA: B3 RNA with A25G, U27G, G28U, U29C, U30A
DNA 1: CAATCTGAATTCCGGTCTCCC
DNA 2: TGGTGGCTACGACGGGATT
B27: CCUGGAG (DNA:RNA)
RNA: B3 RNA with A25C, U29G, U30A, A31G
DNA 1: CAATCTGAATTCCGGTCTCCC
DNA 2: TGGTGGCTACGACGGGATT
B28: UAUCAUA (DNA:RNA)
RNA: B3 RNA with A25U, C26A, G28C, U29A
DNA 1: CAATCTGAATTCCGGTCTCCC
DNA 2: TGGTGGCTACGACGGGATT
B29: CCUGCCC (DNA:RNA)
RNA: B3 RNA with A25C, U29C, U30C, A31C
DNA 1: CAATCTGAATTCCGGTCTCCC
DNA 2: TGGTGGCTACGACGGGATT
B30: UGACUGC (DNA:RNA)
RNA: B3 RNA with A25U, C26G, U27A, G28C, U30G, A31C
DNA 1: CAATCTGAATTCCGGTCTCCC
DNA 2: TGGTGGCTACGACGGGATT
B31: GACCAUU (DNA:RNA)
RNA: B3 RNA with A25G, C26A, U27C, G28C, U29A, A31U
DNA 1: CAATCTGAATTCCGGTCTCCC
DNA 2: TGGTGGCTACGACGGGATT

These binders were tested against T1, RBFOX1 RRM (assay: EMSA; HiTS-Eq, 1 nM pool, 10 min; buffer printed only for the single-RNA assays: 10 mM Tris pH 7.5, 150 mM NaCl, 3.4 mM EDTA, 0.001% NP-40, 30 C). Details: tags: His6 N-terminal (pET28a); label: 5' 32P.
Outline: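 A pool of RNA with 7 randomized nucleotides, 5′-radiolabelled and with DNA-annealed flanks, was equilibrated at 1 nM for 10 min in 50 µL with purified RbFox RRM, wild type or mutant, across increasing protein concentrations. Free RNA was separated by 8% native PAGE, excised, reverse-transcribed, barcoded by PCR and sequenced. Relative association constants were obtained from read-count changes of each RNA species versus the control reaction and normalised to the cognate motif.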

B1 was tested. Which binding signal did it give?
The binding signal was 0.00469 KA relative to UGCAUGU.

Which binding signal does the source give for B2 here?
The binding signal was 0.00197 KA relative to UGCAUGU.

For B3, which binding signal is on record?
Its binding signal is 0.00577 KA relative to UGCAUGU.

With B4 as the binder, how does the binding signal read?
The binding signal was 0.0169 KA relative to UGCAUGU.

With B5 as the binder, how does the binding signal read?
The binding signal was 0.0126 KA relative to UGCAUGU.

With B6 as the binder, how does the binding signal read?
The binding signal was 0.00886 KA relative to UGCAUGU.

How did the binding signal turn out when B7 was run?
Its binding signal is 0.0202 KA relative to UGCAUGU.

How did the binding signal turn out when B8 was run?
Its binding signal is 0.00166 KA relative to UGCAUGU.

Which binding signal does the source give for B9 here?
Its binding signal is 0.016 KA relative to UGCAUGU.

B10 was tested. Which binding signal did it give?
Its binding signal is 0.00949 KA relative to UGCAUGU.

With B11 as the binder, how does the binding signal read?
Its binding signal is 0.0133 KA relative to UGCAUGU.

With B12 as the binder, how does the binding signal read?
Its binding signal is 0.00452 KA relative to UGCAUGU.

For B13, which binding signal is on record?
The binding signal was 0.0112 KA relative to UGCAUGU.

B14 was tested. Which binding signal did it give?
The binding signal was 0.0058 KA relative to UGCAUGU.

How did the binding signal turn out when B15 was run?
The binding signal was 0.0087 KA relative to UGCAUGU.

How did the binding signal turn out when B16 was run?
The binding signal was 0.029 KA relative to UGCAUGU.

How did the binding signal turn out when B17 was run?
The binding signal was 0.00762 KA relative to UGCAUGU.

For B18, which binding signal is on record?
Its binding signal is 0.000495 KA relative to UGCAUGU.

For B19, which binding signal is on record?
Its binding signal is 0.0175 KA relative to UGCAUGU.

Which binding signal does the source give for B20 here?
Its binding signal is 0.00137 KA relative to UGCAUGU.

B21 was tested. Which binding signal did it give?
The binding signal was 0.0122 KA relative to UGCAUGU.

For B22, which binding signal is on record?
The binding signal was 0.0436 KA relative to UGCAUGU.

B23 was tested. Which binding signal did it give?
Its binding signal is 0.00385 KA relative to UGCAUGU.

How did the binding signal turn out when B24 was run?
Its binding signal is 0.0155 KA relative to UGCAUGU.

With B25 as the binder, how does the binding signal read?
The binding signal was 0.0189 KA relative to UGCAUGU.

With B26 as the binder, how does the binding signal read?
The binding signal was 0.00838 KA relative to UGCAUGU.

How did the binding signal turn out when B27 was run?
Its binding signal is 0.0155 KA relative to UGCAUGU.

For B28, which binding signal is on record?
Its binding signal is 0.00198 KA relative to UGCAUGU.

With B29 as the binder, how does the binding signal read?
Its binding signal is 0.006 KA relative to UGCAUGU.

With B30 as the binder, how does the binding signal read?
The binding signal was 0.039 KA relative to UGCAUGU.

With B31 as the binder, how does the binding signal read?
The binding signal was 0.00561 KA relative to UGCAUGU.
